# Data taken from the supplement of paper PMC12217912.
# The other results are listed elsewhere or left out. Sequences were assembled here from the parent chain. Inactive controls read about 0.05.
# B1: TEV protease; numbered along this chain (parent)
# chain: MGESLFKGPRDYNPISSSICHLTNESDGHTTSLYGIGFGPFIITNKHLFRRNNGTLVVQSLHGVFKVKDTTTLQQHLVDGRDMIIIRMPKDFPPFPQKLKFREPQREERICLVTTNFQTKSMSSMVSDTSCTFPSGDGIFWKHWIQTKDGQCGSPLVSTRDGFIVGIHSASNFTNTNNYFTSVPKNFMELLTNQEAQQWVSGWRLNADSVLWGGHKVFMVKPEEPFQPVKEATQL
# Variants of: B1
# Test: raw area under fraction-flipped curve 0-4 h after induction (AUC4h, not background-subtracted), DNA-recorder readout of cleavage of the substrate (dimensionless); higher = more cleavage of the substrate by the protease variant
# Conditions: temperature: 34 °C; time window: 0-4 h after rhamnose induction
# Protocol: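 In vivo DNA recorder in E. coli TOP10(DE3) ΔrhaA at 34 °C. Each TEVp single-site mutant (parent TEVp 0) is paired with a single-site variant of the 7-mer TEVs (canonical ENLYFQ|S). The substrate sits between flexible linkers in a Bxb1-sfGFP-TEVs-SsrA fusion, so cleavage stabilises Bxb1 and speeds flipping of a recombination array, read by NGS. The value is the raw area under the fraction-flipped curve over 0-4 h after rhamnose induction (AUC4h), with ≥20 reads per time point. It is not background-subtracted; inactive controls average about 0.047.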
# 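Note: Bxb1 expression induced with 0.2% (w/v) L-rhamnose at OD600 near 0.5, cultures sampled hourly, flipped fraction per protease–substrate barcode pair counted by paired-end Illumina sequencing.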
Variant,area with substrate ENLAFQS,area with substrate ENLDFQS,area with substrate ENLFFQS,area with substrate ENLGFQS,area with substrate ENLHFQS,area with substrate ENLIFQS,area with substrate ENLKFQS,area with substrate ENLMFQS,area with substrate ENLNFQS,area with substrate ENLPFQS,area with substrate ENLRFQS,area with substrate ENLEFQS,area with substrate ENLSFQS,area with substrate ENLWFQS,area with substrate ENLCFQS,area with substrate ENLQFQS,area with substrate ENLTFQS,area with substrate ENLVFQS,area with substrate ENLLFQS
D149S,0.0586,0.0565,0.0808,0.0629,0.0698,0.0903,0.0655,0.0884,0.0647,0.0626,0.07,–,–,–,–,–,–,–,–
S4P,0.0477,0.0661,0.0989,–,0.0744,0.0758,0.0765,–,0.0515,0.0635,0.0912,0.0577,0.0615,0.0592,–,–,–,–,–
S201P,0.0609,–,0.0648,–,–,–,–,0.0686,0.0667,0.0589,0.0757,0.0624,–,0.0595,0.0598,0.0722,0.0795,0.0687,–
V113L,0.0613,0.061,0.0703,–,0.0701,0.0825,0.0791,0.0838,0.0234,0.064,0.082,0.0612,0.0589,0.0864,0.0632,0.0675,–,–,–
L77T,0.0657,–,0.0626,–,–,0.0544,0.0648,0.0682,–,–,–,0.0684,0.0603,–,–,0.0602,–,–,–
G39D,0.0465,0.0592,0.0549,0.0802,0.0542,0.0337,0.0462,–,0.0437,0.0398,–,0.0427,0.0438,0.0376,0.0499,–,–,–,–
M219D,0.0634,0.0619,0.065,0.0628,0.0519,0.0595,0.0584,0.0652,0.0643,0.0602,0.0624,0.0656,0.0565,0.0647,0.0643,–,–,–,0.0529
K90F,0.0682,0.0475,0.0797,–,–,0.0944,0.0957,–,0.0691,–,–,0.0911,0.0788,0.0584,0.0539,–,–,–,–
S123T,0.0713,0.0781,–,–,–,–,0.0873,0.0864,–,0.0768,0.0911,0.0619,0.0743,0.0597,–,0.0644,0.097,–,0.0871
W212M,0.0821,0.0704,0.0914,–,0.102,–,0.0922,–,0.0671,0.0601,0.0699,0.0723,0.044,–,0.11,0.0607,–,–,0.0552
D27V,0.0574,0.075,0.071,–,–,0.0682,0.071,0.0621,0.0587,0.0542,–,0.0547,0.0571,0.072,0.0708,0.0694,–,–,0.0554
H76E,0.0529,0.0648,0.0768,–,0.0545,–,0.0503,–,0.0563,0.0611,0.0323,0.0622,0.0701,0.0637,0.0697,0.056,–,–,0.0105
D11R,0.0714,0.0606,0.0881,–,0.0786,–,0.0824,–,0.0811,–,0.0789,0.0629,0.0838,0.0794,–,0.0684,–,0.0935,–
S209C,0.0707,0.0674,0.11,0.0635,0.0714,–,0.0877,0.086,0.0642,–,0.0932,0.0662,–,0.0882,–,0.073,0.0724,–,–
E231G,0.0475,0.0786,0.095,0.0657,0.0705,0.0869,0.0754,0.073,0.0651,–,0.0702,0.0547,0.0584,0.074,0.0704,0.127,–,–,0.0836
I19T,0.0636,0.0674,–,0.0655,0.0702,–,–,–,0.0589,0.0495,0.0654,0.0616,0.0784,0.0682,–,–,–,0.0631,0.0637
K66R,0.0705,0.0643,0.089,0.0476,–,0.0862,0.0941,–,0.061,0.0684,–,0.0583,0.0508,–,–,0.0634,0.0694,0.0608,–
P40A,0.0706,0.0656,0.0836,–,–,–,0.0935,–,0.0618,0.0715,0.0794,0.0799,0.0892,0.0636,–,0.0752,–,–,–
V210K,0.0547,0.065,0.0662,0.0819,0.0633,0.0499,0.101,–,0.0474,0.0479,0.0669,0.0544,0.0874,–,0.067,–,0.0645,0.0563,–
P89E,0.0529,0.066,0.0984,–,–,0.0987,0.0586,0.0722,0.0605,0.0877,0.0477,0.0589,–,0.0559,–,–,0.0668,0.0931,0.0587
M219Q,0.0514,0.0656,0.0777,0.0386,0.0567,0.0719,0.0613,–,0.0812,0.0671,0.0654,0.0538,0.0483,–,0.0673,0.0322,–,–,–
Q105N,0.0747,0.053,0.0868,–,0.0434,–,0.0787,0.0733,0.0724,0.0516,0.0664,0.054,0.051,0.0629,–,0.0728,0.0767,–,–
G39K,0.0343,0.0482,0.0484,–,–,–,0.0495,–,0.0595,0.0456,0.049,0.045,0.0626,0.0367,0.041,–,–,0.036,0.0427
Q198Y,0.059,0.0623,0.0741,0.0636,0.0709,0.0773,0.0628,0.0665,0.0588,0.0654,0.0682,0.0533,0.0376,0.0633,0.062,0.0622,–,0.0801,0.0518
I86R,0.0483,0.0455,0.0403,–,0.0465,–,0.046,–,–,–,–,–,0.0455,–,–,–,–,0.0507,0.0071
V57T,0.056,0.0567,0.0713,0.0729,0.0737,0.0986,0.0922,–,0.0624,–,–,–,0.0728,0.0219,0.0784,–,–,–,–
G213Y,0.0556,0.0755,0.062,0.0839,0.0607,–,0.0613,–,0.0616,0.0651,0.0628,–,0.0482,–,0.0654,–,–,–,0.0526
